Data from PMC4207660, “Identification and Characterization of Hundreds of Potent and Selective Inhibitors of Trypanosoma brucei Growth from a Kinase-Targeted Library Screening Campaign” (PLoS Neglected Tropical Diseases, 2014).
Read-outs that look alike come from different tables or passages of the source.

Key:
[1] = system: T. brucei; format: cell-based, Trypanosoma brucei brucei
Protocol: 100 nL per well from master plates were stamped in final assay black, clear-bottom 384-well Greiner microplates, including controls of 0% response (DMSO) and 100% response (2 μM Pentamidine): the final assay concentration was 20 μM. Plates containing DMSO were included randomly in the assay, to assess quality through all process. […] After 18 hours incubation, plates were centrifuged in a centrifuge (Beckman Coulter) for 5 min at 500 g, to sediment the cells, supernatant was aspirated with a Cybio-Well dispenser (Cybio), and 40 μL/well of fresh prewarmed HMI-9 were added: this cycle was performed three times. After the last cycle, 10 μL/well of cells suspension were aspirated by Cybio-Well equipment and dispensed over 40 μL of fresh prewarmed HMI-9 in “recovery plates”: calculated maximal residual concentration was 32 nM. […] Assay […] quality was determined by Z' score and validated data set were analyzed with ActivityBase software. As previous described percentage of inhibition was calculate for each concentration based on controls. A 4-parameter equation was used to fit the dose-response curves and pEC50 determination. The potential effect of residual drug remaining after washes was evaluated by performing the same protocol with standard trypanocidal drugs (such as suramin and diminazene) and negligible effect was observed. […]

[2] = system: T. b. gambiense (strain Eliane MHOM/CI/52/ITMAP 2188); experiment: Potency assessment in vitro against T. b. gambiense (AlamarBlue, 72 h); format: cell-based; settings: Trypanosoma brucei
[3] = system: T. b. rhodesiense (EATRO3 ETat1.2 TREU164); experiment: In vivo efficacy, mouse bloodstream infection with T. b. rhodesiense; settings: for Parasitemia counts (parasites/mL): one value per mouse
[4] = system: T. b. rhodesiense (strain EATRO3 ETat1.2 TREU164); experiment: Potency assessment in vitro against T. b. rhodesiense (AlamarBlue, 72 h); format: cell-based; settings: Trypanosoma brucei
[5] = system: T. brucei brucei parasites (Lister 427 strain); experiment: Dose response growth inhibition assay (resazurin, 72 h); format: cell-based; settings: Trypanosoma brucei, 72 h; read-out: pEC50 (converted)
Protocol: Greiner sterile black clear bottom 384-well assay plates were pre-dispensing with 200 nL of compound in each well, from master plates at 1 mM (100% DMSO) containing selection from the GSK compound collection. Controls of 0% response (control 1, 200 nL of 100%DMSO) and 100% response (control 2, 200 nL of 1 mM pentamidine) were included in each assay plate in columns 6 and 18, respectively. Plates containing 200 nL of 100% DMSO were included randomly in the assay, to assess quality through all process. […] After this period, 10 µL of 200 µM resazurin solution in prewarmed HMI-9 were added to each well, and plates were allowed to incubate 2 hours more prior fluorescence reading in a Wallac EnVision Multilabel Plate Reader (Perkin-Elmer). Raw fluorescent data from the Envision plate reader were uploaded into GSK HTS database (ActivityBase). Activity of each well was normalized as a percentage of inhibition per-plate basis using the following equation: [drawing 1]
For dose-response experiments, serial compound dilutions of selected hits from the primary campaign were plotted against compound concentration. Dose response master plates were prepared by 3-fold dilutions (starting with 10 mM DMSO stock solutions), providing 11 concentrations. From these master plates, 200 nL per well was stamped in final assay plates, including the same controls describe in the primary single shot assay. […]

[6] = Plasma protein binding in human plasma; format: in vitro ADME
[7] = system: T. b. brucei (Lister 427); experiment: In vivo efficacy, mouse bloodstream infection with T. b. brucei; settings: for Parasitemia counts / Survival status of mouse: T. b. brucei infected mice, 20 mg/kg/day; for Parasitemia counts: one value per mouse; for Survival status of mouse: per mouse
[8] = ChromlogD assay; settings: reversed-phase HPLC column (Luna C18 (2)), pH 7.4
Protocol: The Chromatographic Hydrophobicity Index (CHI)[22] values were measured using reversed phase HPLC column (Luna C18 (2), Phenomenex, UK) with a fast acetonitrile gradient at starting mobile phase of pH = 7.4. CHI values are derived directly from the gradient retention times by using a calibration line obtained for standard compounds. The CHI value approximates to the volume % organic concentration when the compound elutes. […] The average error of the assay is ±3 CHI unit or ±0.25 ChromlogD.

[9] = Tolerability in mice; format: in vivo; settings: i.p. doses of 20 mg/kg
[10] = 10 mg/kg ip twice a day from day 3, detection limit 500 parasites/mL of blood

Structure (SMILES): OCCn1c(CNCCCNc2nc3ccccc3[nH]2)cc2c(Cl)cc(Cl)cc21 [NEU-0001053]
- Cidal? [1]: Y (“Cidal” is defined as pEC99≥6 in the reversibility experiments.)
- EC50 ([2]; 72 h, AlamarBlue, read-out: T. b. gambiense EC50): 0.152 ± 0.013 nM
- EC50 ([2]; see Table S6, read-out: T. b. gambiense pEC50 (converted)): 0.2 nM
- parasitemia on day 5 [3, 10]: none of the mice treated with NEU-1053 showed any detectable parasitemia
- parasitemia during follow-up of the treated group ([3]; 10 mg/kg ip twice a day, days 3-6, four day hiatus, another four days): maintained undetectable parasitemia, except one of them, which had a peak of parasitemia on day 11
- Parasitemia counts (parasites/mL) ([3]; T. b. rhodesiense infected mice, 20 mg/Kg/day, day 5 (treatment day)): N.D. (Not Detected (< 500 parasites/ml blood))
- Parasitemia counts (parasites/mL) ([3]; T. b. rhodesiense infected mice, 20 mg/Kg/day, day 6 (treatment day)): N.D. (Not Detected (< 500 parasites/ml blood))
- Parasitemia counts (parasites/mL) ([3]; T. b. rhodesiense infected mice, 20 mg/Kg/day, day 10): N.D. (Not Detected (< 500 parasites/ml blood))
- Parasitemia counts (parasites/mL) ([3]; T. b. rhodesiense infected mice, 20 mg/Kg/day, day 12 (treatment day)): N.D. (Not Detected (< 500 parasites/ml blood))
- Parasitemia counts (parasites/mL) ([3]; T. b. rhodesiense infected mice, 20 mg/Kg/day, day 13 (treatment day)): N.D. (Not Detected (< 500 parasites/ml blood))
- Parasitemia counts (parasites/mL) ([3]; T. b. rhodesiense infected mice, 20 mg/Kg/day, day 14 (treatment day)): N.D. (Not Detected (< 500 parasites/ml blood))
- Parasitemia counts (parasites/mL) ([3]; T. b. rhodesiense infected mice, 20 mg/Kg/day, day 17): N.D. (Not Detected (< 500 parasites/ml blood))
- Parasitemia counts (parasites/mL) ([3]; T. b. rhodesiense infected mice, 20 mg/Kg/day, day 18): N.D. (Not Detected (< 500 parasites/ml blood))
- Parasitemia counts (parasites/mL) ([3]; T. b. rhodesiense infected mice, 20 mg/Kg/day, day 19): N.D. (Not Detected (< 500 parasites/ml blood))
- Parasitemia counts (parasites/mL) ([3]; T. b. rhodesiense infected mice, 20 mg/Kg/day, day 20): N.D. (Not Detected (< 500 parasites/ml blood))
- Parasitemia counts (parasites/mL) ([3]; T. b. rhodesiense infected mice, 20 mg/Kg/day, day 21): N.D. (Not Detected (< 500 parasites/ml blood))
- Parasitemia counts (parasites/mL) ([3]; T. b. rhodesiense infected mice, 20 mg/Kg/day, day 52): N.D. (Not Detected (< 500 parasites/ml blood))
- Survival status of mouse ([3]; T. b. rhodesiense infected mice, 20 mg/Kg/day, day 90, per mouse): Alive
- outcome of murine bloodstream infection ([3]; T. brucei rhodesiense): parasitological cure
- EC50 ([4]; 72 h, AlamarBlue, read-out: T. b. rhodesiense EC50): 0.26 ± 0.04 nM
- EC50 ([4]; see Table S6, read-out: T. b. rhodesiense pEC50 (converted)): 0.251 nM
- EC50 [5]: 0.676 nM
- fraction unbound [6]: < 0.01
- parasitemia after day 3 [7, 10]: none of the mice treated showed any detectable parasitemia
- mice with parasitemia detected after the four day treatment hiatus ([7]; 20 mg/kg/d ip): 2 out of 4
- cure, 90 days after treatment ([7]; 20 mg/kg/d ip, two four-day rounds, one mouse died on day 21): three other mice have been deemed to be cured
- Parasitemia counts ([7]; day 4 (treatment day)): N.D. (Not Detected (< 500 parasites/ml blood))
- Parasitemia counts ([7]; day 5 (treatment day)): N.D. (Not Detected (< 500 parasites/ml blood))
- Parasitemia counts ([7]; day 6 (treatment day)): N.D. (Not Detected (< 500 parasites/ml blood))
- Parasitemia counts ([7]; day 13 (treatment day)): N.D. (Not Detected (< 500 parasites/ml blood))
- Parasitemia counts ([7]; day 21): N.D. (Not Detected (< 500 parasites/ml blood))
- Survival status of mouse ([7]; day 21): Dead
- Parasitemia counts ([7]; day 47): N.D. (Not Detected (< 500 parasites/ml blood))
- Survival status of mouse ([7]; day 90): Alive
- logD [8]: 3.07
- tolerability [9]: well-tolerated
